Results taken from paper PMC9911399, “Two distinct binding modes provide the RNA-binding protein RbFox with extraordinary sequence specificity”.
Changes are numbered by the printed parent chain; changes in the protein carry UniProt numbers. This is one part of the list.

T1: RBFOX1 RRM RbFoxmut (Fox-RRM*) (Homo sapiens, UniProt Q9NWB1 109-208, R118D;E147R;N151S;E152T)
T1 sequence: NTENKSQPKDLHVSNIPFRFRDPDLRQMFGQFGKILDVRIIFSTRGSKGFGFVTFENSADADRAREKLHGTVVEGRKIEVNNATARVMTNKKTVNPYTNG

B1: UCUUCUA (DNA:RNA)
RNA: GGGAGACCGGAAUUCAGAUUGUCCUCUUCUAUUAAAUCCCGUCGUAGCCACCA
DNA 1: CAATCTGAATTCCGGTCTCCC
DNA 2: TGGTGGCTACGACGGGATT
B2: GUUAUGG (DNA:RNA)
RNA: B1 RNA with U25G, C26U, U28A, C29U, U30G, A31G
DNA 1: CAATCTGAATTCCGGTCTCCC
DNA 2: TGGTGGCTACGACGGGATT
B3: CUUUGAC (DNA:RNA)
RNA: B1 RNA with U25C, C26U, C29G, U30A, A31C
DNA 1: CAATCTGAATTCCGGTCTCCC
DNA 2: TGGTGGCTACGACGGGATT
B4: GCUAACC (DNA:RNA)
RNA: B1 RNA with U25G, U28A, C29A, U30C, A31C
DNA 1: CAATCTGAATTCCGGTCTCCC
DNA 2: TGGTGGCTACGACGGGATT
B5: GUAUAAC (DNA:RNA)
RNA: B1 RNA with U25G, C26U, U27A, C29A, U30A, A31C
DNA 1: CAATCTGAATTCCGGTCTCCC
DNA 2: TGGTGGCTACGACGGGATT
B6: UGACCAC (DNA:RNA)
RNA: B1 RNA with C26G, U27A, U28C, U30A, A31C
DNA 1: CAATCTGAATTCCGGTCTCCC
DNA 2: TGGTGGCTACGACGGGATT
B7: UACAGCU (DNA:RNA)
RNA: B1 RNA with C26A, U27C, U28A, C29G, U30C, A31U
DNA 1: CAATCTGAATTCCGGTCTCCC
DNA 2: TGGTGGCTACGACGGGATT
B8: GGGCGAG (DNA:RNA)
RNA: GGGAGACCGGAAUUCAGAUUGUCCGGGCGAGUUAAAUCCCGUCGUAGCCACCA
DNA 1: CAATCTGAATTCCGGTCTCCC
DNA 2: TGGTGGCTACGACGGGATT
B9: CUUUUAU (DNA:RNA)
RNA: B1 RNA with U25C, C26U, C29U, U30A, A31U
DNA 1: CAATCTGAATTCCGGTCTCCC
DNA 2: TGGTGGCTACGACGGGATT
B10: CCUAAGC (DNA:RNA)
RNA: B1 RNA with U25C, U28A, C29A, U30G, A31C
DNA 1: CAATCTGAATTCCGGTCTCCC
DNA 2: TGGTGGCTACGACGGGATT
B11: AACUAGU (DNA:RNA)
RNA: B1 RNA with U25A, C26A, U27C, C29A, U30G, A31U
DNA 1: CAATCTGAATTCCGGTCTCCC
DNA 2: TGGTGGCTACGACGGGATT
B12: GUGACCG (DNA:RNA)
RNA: B8 RNA with G26U, C28A, G29C, A30C
DNA 1: CAATCTGAATTCCGGTCTCCC
DNA 2: TGGTGGCTACGACGGGATT
B13: AUUUUCU (DNA:RNA)
RNA: B1 RNA with U25A, C26U, C29U, U30C, A31U
DNA 1: CAATCTGAATTCCGGTCTCCC
DNA 2: TGGTGGCTACGACGGGATT
B14: CCGCUGG (DNA:RNA)
RNA: B8 RNA with G25C, G26C, G29U, A30G
DNA 1: CAATCTGAATTCCGGTCTCCC
DNA 2: TGGTGGCTACGACGGGATT
B15: UAGAGUU (DNA:RNA)
RNA: B8 RNA with G25U, G26A, C28A, A30U, G31U
DNA 1: CAATCTGAATTCCGGTCTCCC
DNA 2: TGGTGGCTACGACGGGATT
B16: ACCGAUA (DNA:RNA)
RNA: B1 RNA with U25A, U27C, U28G, C29A
DNA 1: CAATCTGAATTCCGGTCTCCC
DNA 2: TGGTGGCTACGACGGGATT
B17: AGCUGCU (DNA:RNA)
RNA: B8 RNA with G25A, G27C, C28U, A30C, G31U
DNA 1: CAATCTGAATTCCGGTCTCCC
DNA 2: TGGTGGCTACGACGGGATT
B18: AUCAAUA (DNA:RNA)
RNA: B1 RNA with U25A, C26U, U27C, U28A, C29A
DNA 1: CAATCTGAATTCCGGTCTCCC
DNA 2: TGGTGGCTACGACGGGATT
B19: ACCAUGA (DNA:RNA)
RNA: B1 RNA with U25A, U27C, U28A, C29U, U30G
DNA 1: CAATCTGAATTCCGGTCTCCC
DNA 2: TGGTGGCTACGACGGGATT
B20: UCGGCUG (DNA:RNA)
RNA: B1 RNA with U27G, U28G, A31G
DNA 1: CAATCTGAATTCCGGTCTCCC
DNA 2: TGGTGGCTACGACGGGATT
B21: ACGGGCC (DNA:RNA)
RNA: B8 RNA with G25A, G26C, C28G, A30C, G31C
DNA 1: CAATCTGAATTCCGGTCTCCC
DNA 2: TGGTGGCTACGACGGGATT
B22: AAUACCG (DNA:RNA)
RNA: B1 RNA with U25A, C26A, U28A, U30C, A31G
DNA 1: CAATCTGAATTCCGGTCTCCC
DNA 2: TGGTGGCTACGACGGGATT
B23: CCACAGU (DNA:RNA)
RNA: B8 RNA with G25C, G26C, G27A, G29A, A30G, G31U
DNA 1: CAATCTGAATTCCGGTCTCCC
DNA 2: TGGTGGCTACGACGGGATT
B24: CAGUAGC (DNA:RNA)
RNA: B8 RNA with G25C, G26A, C28U, G29A, A30G, G31C
DNA 1: CAATCTGAATTCCGGTCTCCC
DNA 2: TGGTGGCTACGACGGGATT
B25: UAAGCAC (DNA:RNA)
RNA: B1 RNA with C26A, U27A, U28G, U30A, A31C
DNA 1: CAATCTGAATTCCGGTCTCCC
DNA 2: TGGTGGCTACGACGGGATT
B26: CGUCCCA (DNA:RNA)
RNA: B1 RNA with U25C, C26G, U28C, U30C
DNA 1: CAATCTGAATTCCGGTCTCCC
DNA 2: TGGTGGCTACGACGGGATT
B27: CAUGCAC (DNA:RNA)
RNA: B1 RNA with U25C, C26A, U28G, U30A, A31C
DNA 1: CAATCTGAATTCCGGTCTCCC
DNA 2: TGGTGGCTACGACGGGATT
B28: ACGUCUC (DNA:RNA)
RNA: B1 RNA with U25A, U27G, A31C
DNA 1: CAATCTGAATTCCGGTCTCCC
DNA 2: TGGTGGCTACGACGGGATT
B29: ACAGUGG (DNA:RNA)
RNA: B8 RNA with G25A, G26C, G27A, C28G, G29U, A30G
DNA 1: CAATCTGAATTCCGGTCTCCC
DNA 2: TGGTGGCTACGACGGGATT
B30: UACAGCG (DNA:RNA)
RNA: B8 RNA with G25U, G26A, G27C, C28A, A30C
DNA 1: CAATCTGAATTCCGGTCTCCC
DNA 2: TGGTGGCTACGACGGGATT
B31: GUCUUUG (DNA:RNA)
RNA: B8 RNA with G26U, G27C, C28U, G29U, A30U
DNA 1: CAATCTGAATTCCGGTCTCCC
DNA 2: TGGTGGCTACGACGGGATT

molecular target: T1, RBFOX1 RRM RbFoxmut (Fox-RRM*); experiment: EMSA; HiTS-Eq, 1 nM pool, 10 min; buffer printed only for the single-RNA assays: 10 mM Tris pH 7.5, 150 mM NaCl, 3.4 mM EDTA, 0.001% NP-40, 30 C; conditions: tags: His6 N-terminal (pET28a); label: 5' 32P
How it was run: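 Purified RbFox RRM (wild type or mutant) was equilibrated for 10 min in 50 µL with 1 nM of a 5′-radiolabelled pool of RNA with 7 randomized nucleotides, its flanks annealed to DNA oligonucleotides, across increasing protein concentrations. Free RNA was separated by 8% native PAGE, excised, reverse-transcribed, PCR-barcoded and sequenced on an Illumina HiSeq 2500. Relative association constants came from read-count changes of each variant against the control reaction, normalised to the cognate motif.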

Binder	binding signal
B1	0.0886 KA relative to UGCAUGU
B2	0.123 KA relative to UGCAUGU
B3	0.1 KA relative to UGCAUGU
B4	0.0517 KA relative to UGCAUGU
B5	0.125 KA relative to UGCAUGU
B6	0.0616 KA relative to UGCAUGU
B7	0.056 KA relative to UGCAUGU
B8	0.126 KA relative to UGCAUGU
B9	0.13 KA relative to UGCAUGU
B10	0.0811 KA relative to UGCAUGU
B11	0.108 KA relative to UGCAUGU
B12	0.162 KA relative to UGCAUGU
B13	0.0686 KA relative to UGCAUGU
B14	0.105 KA relative to UGCAUGU
B15	0.109 KA relative to UGCAUGU
B16	0.0715 KA relative to UGCAUGU

Binder	binding signal
B17	0.107 KA relative to UGCAUGU
B18	0.0978 KA relative to UGCAUGU
B19	0.076 KA relative to UGCAUGU
B20	0.226 KA relative to UGCAUGU
B21	0.192 KA relative to UGCAUGU
B22	0.0781 KA relative to UGCAUGU
B23	0.0857 KA relative to UGCAUGU
B24	0.103 KA relative to UGCAUGU
B25	0.0696 KA relative to UGCAUGU
B26	0.0413 KA relative to UGCAUGU
B27	0.115 KA relative to UGCAUGU
B28	0.0546 KA relative to UGCAUGU
B29	0.103 KA relative to UGCAUGU
B30	0.0734 KA relative to UGCAUGU
B31	0.115 KA relative to UGCAUGU
